Experimental data taken from ChEMBL document CHEMBL1156829.
The full ranking holds about 5,400 compounds; the median of “IFI” is about 2, and the highest 2% start at about 22. The list shows a part of the results.

Test: NOVARTIS: Inhibition Frequency Index (IFI) - the number of HTS assays where a compound showed > 50% inhibition/induction, expressed as a percentage of the number of assays in which the compound was tested.
Format: functional

Row | Structure (SMILES) | IFI [%]
1 | Ic1ccc(NCc2cn3ccccc3n2)cc1 | 8.21
2 | CCCn1nc(Oc2nc(NCC)cc(OC)n2)ccc1=O | 0
3 | O=[N+]([O-])c1ccc(-c2ccc(C=NNc3nc(Nc4ccccc4)nc(Nc4ccccc4)n3)o2)cc1 | 4.65
4 | Cc1cccc(Nc2ccccc2C(=O)OCC(=O)N2CC(=O)Nc3ccccc32)c1C | 4.35
5 | O=C(Nc1ccc(F)cc1)N1CCN(c2ccc3nnc(-c4ccccc4)n3n2)CC1 | 0
6 | CSC1=NC(C)(C)CC2(CC(c3ccc(C)cc3)c3cc(Cl)c(O)cc3O2)N1 (stereo not drawn) | 10.4
7 | COc1cc(OC)c(N(C)C(=O)c2cn(C3CCCC3)c(=O)c3c2c2ccccc2n3C)cc1Cl | 6.67
8 | Cc1cc(C)c(CSC(=N)N)c(C)c1CSC(=N)N | 0
9 | O=C(c1ccncc1)N1N=C(c2c(-c3ccccc3)c3cc(Br)ccc3[nH]c2=O)CC1c1ccccc1 (stereo not drawn) | 4.11
10 | CCOC(=O)c1[nH]c2ccc(C)cc2c1N=NN(C)C | 5.46
11 | O=C(Nc1ccc(Br)cn1)c1ccc(Oc2cc(Oc3cccc(Cl)c3)cc([N+](=O)[O-])c2)cc1 | 0
12 | CCCCCCCCC(=O)Nc1c(C)cccc1C | 0.962
13 | COc1cc(-c2nc(-c3ccccc3)c(-c3ccc(O)cc3)[nH]2)cc(OC)c1O | 0
14 | O=C1NN(c2ccccc2)C(=O)/C1=C1/C(=O)N(Cc2cccc3ccccc23)c2ccccc21 | 0
15 | O=C(O)[C@@H]1C[C@H](CP(=O)(O)O)CCN1 | 0
16 | Cc1ccccc1CNC(=O)c1oc2c(c1C)-c1[nH]ncc1CC2 | 0
17 | Sc1nc2ccc3nsnc3c2[nH]1 | 0
18 | OC(CNCc1ccccc1)Cn1c2ccc(Br)cc2c2cc(Br)ccc21 (stereo not drawn) | 5.26
19 | Cc1ccc(-n2c(SCc3cccc4ccccc34)nc3sc4c(c3c2=O)CCN(C)C4)cc1 | 10
20 | Cc1c(C)n(Cc2ccc(F)cc2)c2ccc(C(=O)NCc3ccco3)cc12 | 6.25
21 | CC(NC(=O)c1cnn2c(C(F)(F)F)cc(-c3ccc(Br)cc3)nc12)c1ccccc1 (stereo not drawn) | 3.23

Row | Structure (SMILES) | IFI [%]
22 | N=c1c2c(n(Cc3ccccc3)c3c1CCC3)CCCC2 | 7.69
23 | CN(CCCNc1ccnc2cc(Cl)ccc12)C(=O)CSc1ccccc1 | 3.74
24 | CCOC(=O)c1c(C)[n+](-c2ccc(C)cc2)c(CC)c2cc(OC)c(OC)cc12 | 2.29
25 | COc1ccc(NS(=O)(=O)c2cccc(C(=O)Nc3ccccc3[N+](=O)[O-])c2)cc1 | 0
26 | COc1ccc(C(=O)NCCc2ccc(C)cc2)cc1OC1CCN(C(C)=O)CC1 | 0
27 | Cc1ccc(-c2cn3c([n+]2-c2ccccc2)SCC3)cc1 | 5.18
28 | COc1ccc2c(c1)c(C)cc[n+]2Cc1ccccc1 | 6.3
29 | Cc1ccc(NC(=O)N2CCN(CCN(Cc3ccc(F)cc3)C(=O)c3ccccc3C)CC2)cc1 | 0
30 | CCOC(=O)c1c(C)n(-c2ccccc2)c2ccc(OC(=O)c3ccccc3NC(=O)CC)cc12 | 2.78
31 | O=C1[C@@H]2CCCN2C(=O)C(c2ccc(Oc3ccccc3)cc2)N1CCc1ccccn1 (stereo partly drawn) | 2.74
32 | COc1ccc(OC)c(-c2ccc(O)c(CNC3CCCCC3)c2)c1 | 1.74
33 | COc1cc(C=NNC(=O)c2ccc(C(=O)NN=Cc3ccc(O)c(OC)c3)cc2)ccc1O | 7.14
34 | COc1ccccc1CNc1ncc(C(=O)NCCCN2CCCC2=O)c(NCCc2ccccc2)n1 | 1.94
35 | CCCCCCN(C(=O)c1ccc(CC)cc1)C(CC)c1nc2ccccc2c(=O)n1-c1cccc(Cl)c1 (stereo not drawn) | 1.89
36 | O=C1Nc2ccccc2C1=Nc1ccccc1NS(=O)(=O)c1ccc2ccccc2c1 | 7.69
37 | O=C(COC(c1ccccc1)c1cccnc1)NCCNC(=O)OCc1ccccc1 (stereo not drawn) | 0.909
38 | CCC(=O)N1CCc2cc(Br)cc(S(=O)(=O)N3CC(C)CC(C)C3)c21 (stereo not drawn) | 0
39 | COC(=O)C1=C(C)NC2=C(C(=O)CC(c3ccccc3)C2)C1c1cc(C)sc1SC (stereo not drawn) | 4.71
40 | CCN(CC)CCCN(Cc1cc2ccc(C)cc2[nH]c1=O)C(=S)Nc1cccc(Cl)c1 | 9.4
41 | COc1cccc(NC(=O)c2ccc(NCCCN3CC(C)CC(C)C3)c([N+](=O)[O-])c2)c1 (stereo not drawn) | 7.69
42 | c1ccc(-c2cc(NCCCN3CCOCC3)nc(-c3ccccn3)n2)nc1 | 15.4

Row | Structure (SMILES) | IFI [%]
43 | CCN1C(C(=O)c2ccccc2)=C(Nc2c(C)n(C)n(-c3ccccc3)c2=O)c2ccccc2S1(=O)=O | 0
44 | O=C(NCCCN1CCCC1=O)c1cnc(N2CCN(Cc3ccccc3)CC2)nc1NCCc1ccccc1 | 0.98
45 | Cc1cc(-c2cn[nH]c2C2CCCN(C(=O)Cc3ccccc3F)C2)on1 (stereo not drawn) | 0
46 | COc1ccc(OC)c(-c2ccc(O)c(CNCC(C)C)c2)c1 | 2.59
47 | CCOC(=O)c1sc2nc(N)c(C#N)c(-c3cccs3)c2c1N | 1.35
48 | O=C1NC(=S)N/C1=C\C=C\c1ccc([N+](=O)[O-])o1 | 10.6
49 | O=C(Cn1ccc(=NCc2ccccc2)cc1)c1ccc(Cl)cc1 | 4.41
50 | CN(C)c1ccc(-c2nc(-c3ccc(-c4[nH]c(-c5ccc(N(C)C)cc5)nc4-c4ccccc4)cc3)c(-c3ccccc3)[nH]2)cc1 | 12.5
51 | CCCc1c(C(=O)OCC)c2cc(O)ccc2n1-c1ccc(OC)cc1 | 6.25
52 | CC(=O)OC(OC(C)=O)C12C=CC(O1)C1C(=O)N(c3cccc(C)c3)C(=O)C12 (stereo not drawn) | 0
53 | CN1CCCN(C(=O)C2CC23CCN(Cc2ccc(N(C)c4ccccc4)cc2)CC3)CC1 (stereo not drawn) | 15.4
54 | O=C1CSc2nc3ccccc3n21 | 0
55 | CCOc1ccc2nc(C)cc(Nc3ccc(OC)cc3)c2c1 | 0
56 | COc1ccc(OC)c(-c2ccc(O)c(CN3CCC(c4ccccc4)CC3)c2)c1 | 1.72
57 | Cc1cc(C)c2c(c1)c(-c1ccccc1)c(-c1ccccc1)n2CC(O)Cn1cnc(-c2ccccc2)c1-c1ccccc1 (stereo not drawn) | 2.3
58 | FC(F)(F)c1ccccc1CN1CCc2nc(N3CCCCC3)sc2C1 | 9.86
59 | CC(C)CNCc1cc(-c2ccc(F)cc2)ccc1O | 0.98
60 | Oc1ccc(C=NN=C(Nc2ccccn2)c2ccccn2)c(O)c1 | 23.1
61 | CC1(C)CN=C(N2CCN(CC(O)COc3ccc(OCC(O)CN4CCN(C5=NCC(C)(C)S5)CC4)cc3)CC2)S1 (stereo not drawn) | 7.69
62 | c1ccc(Cc2cc[n+](Cc3ccccc3)cc2)cc1 | 0
63 | O=C1C(N2CCCCC2)=C(N2CCOCC2)C(=O)c2ccccc21 | 7.69
